PubChem BioAssay AID720709 (National Center for Advancing Translational Sciences (NCATS), 2013)
Hit rate of the full screen: of about 360,000 compounds, about 520 (0.14%) were called active. The shares of active, inactive and inconclusive entries below differ from those in the screen. Calls follow the shape of the dose curve; as a rule, active = well fitted inhibition curve with a large enough effect; inconclusive = small, poorly fitted or top-dose-only effect; inactive = no such curve, though single readings can be large or run the other way. No potency is given beside an inconclusive call; the fits are too rough.

Molecular target: Rap guanine nucleotide exchange factor 3 (Homo sapiens) (UniProt O95398)
Chain of UniProt O95398 (O95398 whole entry, looked up): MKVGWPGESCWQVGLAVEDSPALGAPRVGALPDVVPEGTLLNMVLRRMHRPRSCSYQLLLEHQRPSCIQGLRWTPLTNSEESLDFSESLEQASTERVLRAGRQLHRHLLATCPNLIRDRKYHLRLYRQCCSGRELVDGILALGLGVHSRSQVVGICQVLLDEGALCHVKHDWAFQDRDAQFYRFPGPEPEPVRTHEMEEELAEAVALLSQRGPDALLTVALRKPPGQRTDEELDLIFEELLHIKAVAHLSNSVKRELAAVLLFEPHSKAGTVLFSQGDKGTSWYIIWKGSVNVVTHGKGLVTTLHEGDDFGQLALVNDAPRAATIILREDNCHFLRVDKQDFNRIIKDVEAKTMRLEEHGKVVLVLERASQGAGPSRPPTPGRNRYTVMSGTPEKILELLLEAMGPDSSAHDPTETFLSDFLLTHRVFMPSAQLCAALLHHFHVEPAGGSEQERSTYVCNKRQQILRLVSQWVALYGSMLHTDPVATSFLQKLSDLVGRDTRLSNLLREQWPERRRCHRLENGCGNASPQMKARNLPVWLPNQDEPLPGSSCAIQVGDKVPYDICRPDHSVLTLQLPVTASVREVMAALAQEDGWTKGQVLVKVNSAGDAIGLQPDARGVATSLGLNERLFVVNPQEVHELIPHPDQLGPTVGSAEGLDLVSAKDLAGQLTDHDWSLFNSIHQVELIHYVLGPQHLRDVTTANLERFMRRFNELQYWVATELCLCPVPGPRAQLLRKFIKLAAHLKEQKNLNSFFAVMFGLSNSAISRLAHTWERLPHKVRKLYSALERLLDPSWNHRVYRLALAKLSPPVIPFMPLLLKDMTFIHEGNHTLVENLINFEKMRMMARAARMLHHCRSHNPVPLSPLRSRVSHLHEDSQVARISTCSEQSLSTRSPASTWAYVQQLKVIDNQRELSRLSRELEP
Assay: qHTS for Antagonist of cAMP-regulated guanine nucleotide exchange factor 3 (EPAC1): primary screen; also: nearly all actives have a fitted effect of over 50% in size;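 as to activity change, negative = inhibition: plate controls were vehicle for no effect and positive control for full effect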
Details: EPAC1 GEF assay, Rap1b-BODIPY-GDP exchange fluorescence; activity change, negative = inhibition: at 115 µM (top of the series)
Potency is read from the fitted curve at half-maximal effect; tags tell the direction and shape of the fitted curve.

| Compound | Potency | activity change, negative = inhibition |
| --- | --- | --- |
| N#C/C(=C/c1ccc(-c2ccc(S(N)(=O)=O)cc2)o1)c1nc2ccccc2s1 | inconclusive [inhibitor, partial curve] | – |
| Cc1cc(C)cc(N(C(=O)c2snc(C(N)=O)c2N)C(C(=O)NCC2CCCO2)c2ccc(C)o2)c1 (stereo unspecified) | inconclusive [inhibitor, single point] | – |
| Cc1ccc(S(=O)(=O)NCc2ccc(C(=O)N(C)CCC#N)cc2)cc1 | – | inactive: -14.4% |
| N#Cc1c(/N=C/c2ccco2)sc2c1CCC2 | – | inactive: 7.1% |
| CC1=NNC(=O)/C1=C\c1cn(-c2ccccc2)nc1-c1ccc(F)cc1 | – | inactive: -25.4% |
| COc1ccc(/C=C2/CCCC(C(=O)C(F)(F)F)=C2O)cc1OC | inconclusive [inhibitor, single point] | – |
| Cc1ccc(-c2cc(C(=O)NCc3ccco3)c3ccccc3n2)o1 | inconclusive [inhibitor, full curve, poor fit] | – |
| CCN1CCN(Cc2c(O)ccc3c(=O)c(-c4ccccc4OC)coc23)CC1 | – | inactive: -4.33% |
| CC(C)CCNC(=O)c1onc(CSc2ccccn2)c1C(=O)NCCC(C)C | inconclusive [inhibitor, full curve, poor fit] | – |
| CCc1noc(C)c1C(=O)Nc1nc2c(C)cc(C)cc2s1 | – | inactive: -24.6% |
| COc1ccc2c(c1)C(SCC(=O)NCc1ccccc1)CC(C)(C)O2 (stereo unspecified) | inconclusive [inhibitor, partial curve] | – |
| CC(C)C(c1nnnn1Cc1ccc(F)cc1)N1CCN(Cc2ccc3c(c2)OCO3)CC1 (stereo unspecified) | – | inactive: -6.39% |
| COc1ccc(S(=O)(=O)N(Cc2ccco2)Cc2cc3ccccc3[nH]c2=O)cc1 | – | inactive: -6.09% |
| NC1=C(Br)C(=O)c2ncccc2C1=O | inconclusive [inhibitor, partial curve, poor fit] | – |
| COC(=O)c1ccc(NC(=O)CNC(=O)c2sc3ccccc3c2Cl)cc1 | inconclusive [inhibitor, single point] | – |
| CN1CCN(S(=O)(=O)c2ccc(N3CCN(c4ccc(O)cc4)CC3)c([N+](=O)[O-])c2)CC1 | inconclusive [inhibitor, single point] | – |
| C#CC(=O)CC1(CN(Cc2ccccc2)C(=O)OC(C)(C)C)CCCCC1 | inconclusive [inhibitor, single point] | – |
| Cc1ccc(S(=O)(=O)N2[C@@H](c3ccccc3)C(C(=O)O)=CC[C@H]2c2ccc(C(C)C)cc2)cc1 | inconclusive [inhibitor, partial curve] | – |
| Cc1c(C(=O)O)cccc1-n1c(C)cc(/C=N/Nc2ccc([N+](=O)[O-])cn2)c1C | inconclusive [inhibitor, full curve, poor fit] | – |
| O=C(NCc1ccco1)c1ccc(Cn2c(=O)c3ccccc3n(Cc3cccc(Cl)c3)c2=O)cc1 | inconclusive [inhibitor, single point] | – |
| O=C(Nc1ccc(F)cc1)N1CCC(c2nc3c(nnn3Cc3ccccc3Cl)c(=O)[nH]2)CC1 | inconclusive [inhibitor, single point] | – |
| Cc1ccc(S(=O)(=O)Nc2ccc3ccccc3c2[N+](=O)[O-])cc1 | inconclusive [inhibitor, single point] | – |

| Compound | Potency | activity change, negative = inhibition |
| --- | --- | --- |
| O=C(NCc1ccc2c(c1)OCO2)c1ccc(COc2cc(Cl)ccc2Cl)o1 | inconclusive [inhibitor, partial curve] | – |
| CCc1ccc(C(=O)NNC(=O)CCC2CCCCC2)cc1 | inconclusive [inhibitor, partial curve] | – |
| Cc1ccc(S(=O)(=O)NC2CC(=O)N(c3ccc4c(c3)OCCO4)C2)cc1 (stereo unspecified) | inconclusive [inhibitor, single point] | – |
| O=C(NCc1ccccc1)c1ccc(OCC2CCCO2)cc1 (stereo unspecified) | inconclusive [inhibitor, single point] | – |
| Cn1cccc1Cc1nnc(SCC(=O)N2CCOCC2)n1CCc1ccccc1 | inconclusive [inhibitor, single point] | – |
| Cc1cccc(CNC(=O)c2sc(=O)n(Cc3ccc(S(C)(=O)=O)cc3)c2C)c1 | inconclusive [inhibitor, partial curve] | – |
| CC(C)(C)NC(=O)C(c1cc2ccccc2o1)n1c(=O)c(-c2ccccc2)nc2ccccc21 (stereo unspecified) | – | inactive: -1.24% |
| O=C(Nc1cccc(Cl)c1)C1CCN(C(=O)c2cccs2)CC1 | inconclusive [inhibitor, full curve, poor fit] | – |
| Cc1ccc(C2CCN(C(=O)Nc3ccccc3)C2)cc1 (stereo unspecified) | inconclusive [inhibitor, partial curve] | – |
| O=C(N/N=C/c1ccc([N+](=O)[O-])cc1)c1cccc2cc[nH]c12 | inconclusive [inhibitor, single point] | – |
| CCc1ccccc1NC(=O)CN(C)C(=O)CSc1nn(-c2ccc(F)cc2)c(=S)s1 | inconclusive [inhibitor, partial curve, poor fit] | – |
| O=C(NCCc1csc(-c2cccnc2)n1)c1ccc(Br)o1 | – | inactive: -1.03% |
| CCOC(=O)C1=CCN(S(=O)(=O)c2ccccc2C(=O)OC)C1c1ccc(Cl)cc1 (stereo unspecified) | inconclusive [inhibitor, single point] | – |
| O=C(CCl)Nc1cn(-c2ccccc2)nc1-c1ccc(F)cc1 | inconclusive [inhibitor, partial curve, poor fit] | – |
| O=C1CN(C(=O)CSc2nc3ccccc3c(=O)n2Cc2ccc(F)cc2)c2ccccc2N1 | inconclusive [inhibitor, partial curve] | – |
| CCC1=NN2C(=N)/C(=C\c3cccn3-c3ccc(C)cc3C)C(=O)N=C2S1 | inconclusive [inhibitor, partial curve, poor fit] | – |
| CCN1C(=O)C(=CC=CN(C)c2ccccc2)SC1=S | – | inactive: 34.7% |
| Cc1c(CCC(=O)O)c(=O)oc2cc(OCc3ccccc3Br)ccc12 | inconclusive [inhibitor, partial curve] | – |
| Cc1ccc(C(=O)OCc2nc3ccsc3c(=O)[nH]2)o1 | – | inactive: -13.9% |
| Cc1ccc(C(=O)NCC(=O)NCC(=O)OCC(=O)c2ccc([N+](=O)[O-])cc2)cc1 | – | inactive: 10.8% |
| CNC(=O)c1cccc(NC(=O)CCCNC(=O)c2ccc(Cl)cc2)c1 | – | inactive: 7.48% |
| COc1cccc(/C=C/C(=O)OCC(=O)NCCC2=CCCCC2)c1OC | – | inactive: 4.45% |

| Compound | Potency | activity change, negative = inhibition |
| --- | --- | --- |
| O=C(O)c1cccc(NC(=S)NC(=O)c2ccc(-c3ccc(Cl)cc3)o2)c1 | inconclusive [inhibitor, partial curve] | – |
| Cc1ccc(C(C(=O)NC2CCCC2)N(C(=O)CNC(=O)c2cccs2)c2cccnc2)o1 (stereo unspecified) | inconclusive [inhibitor, partial curve] | – |
| O=c1cc(O)nc(SCc2ccccc2)n1-c1ccc(Cl)cc1 | inconclusive [inhibitor, partial curve] | – |
| O=C(O)/C(=C\c1ccccc1OC(F)F)Sc1nnc(-c2ccc(F)cc2)o1 | inconclusive [inhibitor, full curve, poor fit] | – |
| Cc1ccc(NS(=O)(=O)c2ccc(Cl)c(NC(=S)NC(=O)C3CCCCC3)c2)cc1Cl | – | inactive: -12.4% |
| CC(=O)Nc1ccc(S(=O)(=O)NNC2=NS(=O)(=O)c3ccccc32)cc1 | inconclusive [inhibitor, partial curve] | – |
| C/C(=N\NC(=O)C(N)=O)c1ccc(O)cc1O | inconclusive [inhibitor, partial curve] | – |
| COc1ccc(-c2c(-c3ccc(OCC(=O)NN)cc3O)n[nH]c2C(F)(F)F)cc1 | inconclusive [inhibitor, partial curve, poor fit] | – |
| CCc1nnc(NS(=O)(=O)c2ccc(NC(=O)c3ccc([N+](=O)[O-])s3)cc2)s1 | – | inactive: -15.7% |
| O=C(NN1C(=O)/C(=C/c2ccc(O)c(O)c2)SC1=S)c1ccccc1 | inconclusive [inhibitor, full curve] | – |
| CCCN1CCc2c(sc3nc(SC)n(-c4ccccc4)c(=O)c23)C1 | – | inactive: -21.7% |
| CC1CCCCN1S(=O)(=O)c1ccc(C(=O)Nc2nnc(-c3ccccc3Cl)o2)cc1 (stereo unspecified) | inconclusive [inhibitor, single point] | – |
| CCOC(=O)[C@]12CCC=C1N(Cc1cccc3ccccc13)C(=O)[C@H](CC(=O)NCC1CCCCC1)C2 | – | inactive: 3.21% |
| COc1ccc(C(=O)NCCCSc2ccccc2)cc1F | – | inactive: -3.68% |
| Cc1nc(NC(C)c2ccccc2)c2oc3ccccc3c2n1 (stereo unspecified) | inconclusive [inhibitor, partial curve, poor fit] | – |
| Cc1ccc(S(=O)(=O)/N=C2/NC(=O)/C(=C/c3ccccc3)S2)cc1 | inconclusive [inhibitor, partial curve] | – |
| CCn1c(SCC(O)c2ccccc2)nnc1-c1ccccc1 (stereo unspecified) | inconclusive [inhibitor, partial curve] | – |
| Cc1cccc(C(=O)N[C@H](C(=O)Nc2ccc3c(c2)OCO3)C(C)C)c1 | – | inactive: 6.5% |
| CCOC(=O)N1CCC(N(CCOC)C(=S)Nc2cccc(SC)c2)CC1 | inconclusive [inhibitor, partial curve, poor fit] | – |
| Cc1cc(-c2n[nH]c(=S)n2CC(C)C)cs1 | – | inactive: -16.6% |
| COc1ccc2[nH]c(=O)c(CN(C(=O)c3cccnc3)c3cc(C)ccc3C)cc2c1 | inconclusive [inhibitor, single point] | – |
| CC1(Cc2ccccc2OC(F)(F)F)C(=O)Nc2cc(-c3ccccc3Cl)ccc21 (stereo unspecified) | inconclusive [inhibitor, full curve, poor fit] | – |
